# From the supplement of paper PMC8728848
# The other results are listed elsewhere or left out.
# B1: L-Selectin (Homo sapiens), P14151 (protein)
# chain: MIFPWKCQSTQRDLWNIFKLWGWTMLCCDFLAHHGTDCWTYHYSEKPMNWQRARRFCRDNYTDLVAIQNKAEIEYLEKTLPFSRSYYWIGIRKIGGIWTWVGTNKSLTEEAENWGDGEPNNKKNKEDCVEIYIKRNKDAGKWNDDACHKLKAALCYTASCQPWSCSGHGECVEIINNYTCNCDVGYYGPQCQFVIQCEPLEAPELGTMDCTHPLGNFSFSSQCAFSCSEGTNLTGIEETTCGPFGNWSSPEPTCQVIQCEPLSAPDLGIMNCSHPLASFSFTSACTFICSEGTELIGKKKTICESSGIWSNPSPICQKLDKSFSMIKEGDYNPLFIPVAVMVTAFSGLAFIIWLARRLKKGKKSKRSMNDPY
# What was measured:
# Assay in all cases: glycan array binding signal (z-score within array); higher = stronger binding
# Conditions in all cases: glycan notation: IUPAC condensed, linker removed
# [1] = target: Neu5Ac(a2-3)Gal(b1-3)[Fuc(a1-4)]GlcNAc
# In short: (§1)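 Glycan array binding is given as a within-array Z-score, which can be read as non-binding when negative. The arrays, 3228 of them, came from the Consortium for Functional Glycomics database and were retained only where the protein sequence was available. Z-scores were averaged across arrays of the same protein sequence at different concentrations or buffers and across linkers.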
# [2] = target: Neu5Ac(a2-3)Gal(b1-3)[Fuc(a1-4)]GlcNAc(b1-3)Gal(b1-4)[Fuc(a1-3)]GlcNAc
# In short: as §1
# [3] = target: Neu5Ac(a2-3)Gal(b1-3)[Neu5Ac(a2-3)Gal(b1-4)]GlcNAc
# In short: as §1
# [4] = target: Neu5Ac(a2-3)Gal(b1-3)[Neu5Ac(a2-6)]GalNAc
# In short: as §1
# Neu5Ac(a2-3)Gal(b1-4)Glc = target: Neu5Ac(a2-3)Gal(b1-4)Glc
# In short: as §1
# [5] = target: Neu5Ac(a2-3)Gal(b1-4)GlcNAc
# In short: as §1
# [6] = target: Neu5Ac(a2-3)Gal(b1-4)GlcNAc(b1-2)Man(a1-3)[GlcNAc(b1-2)Man(b1-4)GlcNAc(b1-2)Man(a1-6)]Man(b1-4)GlcNAc(b1-4)GlcNAc
# In short: as §1
# [7] = target: Neu5Ac(a2-3)Gal(b1-4)GlcNAc(b1-2)Man(a1-3)[Neu5Ac(a2-6)Gal(b1-4)GlcNAc(b1-2)Man(a1-6)]Man(b1-4)GlcNAc(b1-4)GlcNAc
# In short: as §1
# [8] = target: Neu5Ac(a2-3)Gal(b1-4)GlcNAc(b1-3)Gal(b1-3)GlcNAc
# In short: as §1
# [9] = target: Neu5Ac(a2-3)Gal(b1-4)GlcNAc(b1-3)Gal(b1-4)GlcNAc
# In short: as §1
# [10] = target: Neu5Ac(a2-3)Gal(b1-4)GlcNAc(b1-3)Gal(b1-4)GlcNAc(b1-3)Gal(b1-4)GlcNAc
# In short: as §1
# [11] = target: Neu5Ac(a2-3)Gal(b1-4)GlcNAc(b1-3)Gal(b1-4)[Fuc(a1-3)]GlcNAc
# In short: as §1
# [12] = target: Neu5Ac(a2-3)Gal(b1-4)GlcNAc(b1-6)[Gal(b1-3)]GalNAc
# In short: as §1
# [13] = target: Neu5Ac(a2-3)Gal(b1-4)GlcNAc(b1-6)[Neu5Ac(a2-3)Gal(b1-3)]GalNAc
# In short: as §1
# [14] = target: Neu5Ac(a2-3)Gal(b1-4)GlcNAc6S
# In short: as §1
# [15] = target: Neu5Ac(a2-3)Gal(b1-4)[Fuc(a1-3)]GlcNAc
# In short: as §1
# [16] = target: Neu5Ac(a2-3)Gal(b1-4)[Fuc(a1-3)]GlcNAc(b1-3)Gal
# In short: as §1
# [17] = target: Neu5Ac(a2-3)Gal(b1-4)[Fuc(a1-3)]GlcNAc(b1-3)Gal(b1-4)GlcNAc
# In short: as §1
# [18] = target: Neu5Ac(a2-3)Gal(b1-4)[Fuc(a1-3)]GlcNAc(b1-3)Gal(b1-4)[Fuc(a1-3)]GlcNAc(b1-3)Gal(b1-4)[Fuc(a1-3)]GlcNAc
# In short: as §1
# [19] = target: Neu5Ac(a2-3)Gal(b1-4)[Fuc(a1-3)]GlcNAc(b1-6)[Gal(b1-3)]GalNAc
# In short: as §1
# [20] = target: Neu5Ac(a2-3)Gal(b1-4)[Fuc(a1-3)]GlcNAc6S
# In short: as §1
# [21] = target: Neu5Ac(a2-3)Gal6S(b1-4)GlcNAc
# In short: as §1
# [22] = target: Neu5Ac(a2-3)Gal6S(b1-4)[Fuc(a1-3)]GlcNAc
# In short: as §1
# Neu5Ac(a2-3)GalNAc = target: Neu5Ac(a2-3)GalNAc
# In short: as §1
# [23] = target: Neu5Ac(a2-3)GalNAc(b1-4)GlcNAc
# In short: as §1
# [24] = target: Neu5Ac(a2-3)[GalNAc(b1-4)]Gal(b1-4)Glc
# In short: as §1
# [25] = target: Neu5Ac(a2-3)[GalNAc(b1-4)]Gal(b1-4)GlcNAc
# In short: as §1
# [26] = target: Neu5Ac(a2-3)[Neu5Ac(a2-6)]GalNAc
# In short: as §1
# Neu5Ac(a2-6)Gal = target: Neu5Ac(a2-6)Gal
# In short: as §1
# Neu5Ac(a2-6)Gal(b1-4)Glc = target: Neu5Ac(a2-6)Gal(b1-4)Glc
# In short: as §1
# [27] = target: Neu5Ac(a2-6)Gal(b1-4)GlcNAc
# In short: as §1
# [28] = target: Neu5Ac(a2-6)Gal(b1-4)GlcNAc(b1-2)Man(a1-3)[Gal(b1-4)GlcNAc(b1-2)Man(a1-6)]Man(b1-4)GlcNAc(b1-4)GlcNAc
# In short: as §1
# [29] = target: Neu5Ac(a2-6)Gal(b1-4)GlcNAc(b1-2)Man(a1-3)[GlcNAc(b1-2)Man(a1-6)]Man(b1-4)GlcNAc(b1-4)GlcNAc
# In short: as §1
# [30] = target: Neu5Ac(a2-6)Gal(b1-4)GlcNAc(b1-2)Man(a1-3)[GlcNAc(b1-2)Man(b1-4)GlcNAc(b1-2)Man(a1-6)]Man(b1-4)GlcNAc(b1-4)GlcNAc
# In short: as §1
# [31] = target: Neu5Ac(a2-6)Gal(b1-4)GlcNAc(b1-2)Man(a1-3)[Neu5Ac(a2-6)Gal(b1-4)GlcNAc(b1-2)Man(a1-6)]Man(b1-4)GlcNAc(b1-4)GlcNAc
# In short: as §1
# [32] = target: Neu5Ac(a2-6)Gal(b1-4)GlcNAc(b1-2)Man(a1-6)[Gal(b1-4)GlcNAc(b1-2)Man(a1-3)]Man(b1-4)GlcNAc(b1-4)GlcNAc
# In short: as §1
# [33] = target: Neu5Ac(a2-6)Gal(b1-4)GlcNAc(b1-2)Man(a1-6)[GlcNAc(b1-2)Man(a1-3)]Man(b1-4)GlcNAc(b1-4)GlcNAc
# In short: as §1
# [34] = target: Neu5Ac(a2-6)Gal(b1-4)GlcNAc(b1-3)Gal(b1-4)GlcNAc
# In short: as §1
# [35] = target: Neu5Ac(a2-6)Gal(b1-4)GlcNAc(b1-3)Gal(b1-4)[Fuc(a1-3)]GlcNAc(b1-3)Gal(b1-4)[Fuc(a1-3)]GlcNAc
# In short: as §1
# [36] = target: Neu5Ac(a2-6)Gal(b1-4)GlcNAc6S
# In short: as §1
# Neu5Ac(a2-6)GalNAc = target: Neu5Ac(a2-6)GalNAc
# In short: as §1
# [37] = target: Neu5Ac(a2-6)GalNAc(b1-4)GlcNAc
# In short: as §1
# Neu5Ac(a2-8)Neu5Ac = target: Neu5Ac(a2-8)Neu5Ac
# In short: as §1
# [38] = target: Neu5Ac(a2-8)Neu5Ac(a2-3)Gal(b1-4)Glc
# In short: as §1
# [39] = target: Neu5Ac(a2-8)Neu5Ac(a2-3)[GalNAc(b1-4)]Gal(b1-4)Glc
# In short: as §1
# [40] = target: Neu5Ac(a2-8)Neu5Ac(a2-8)Neu5Ac
# In short: as §1
# [41] = target: Neu5Ac(a2-8)Neu5Ac(a2-8)Neu5Ac(a2-3)Gal(b1-4)Glc
# In short: as §1
# [42] = target: Neu5Ac(a2-8)Neu5Ac(a2-8)Neu5Ac(a2-3)[GalNAc(b1-4)]Gal(b1-4)Glc
# In short: as §1
# [43] = target: Neu5Ac(a2-8)Neu5Ac(a2-8)Neu5Ac(a2-8)Neu5Ac(a2-3)[GalNAc(b1-4)]Gal(b1-4)Glc
# In short: as §1
# [44] = target: Neu5Ac(b2-6)Gal(b1-4)GlcNAc
# In short: as §1
# Neu5Ac(b2-6)GalNAc = target: Neu5Ac(b2-6)GalNAc
# In short: as §1
# [45] = target: Neu5Ac9Ac(a2-6)Gal(b1-4)GlcNAc
# In short: as §1
# [46] = target: Neu5Gc(a2-3)Gal(b1-3)GlcNAc
# In short: as §1
# [47] = target: Neu5Gc(a2-3)Gal(b1-3)[Fuc(a1-4)]GlcNAc
# In short: as §1
# Neu5Gc(a2-3)Gal(b1-4)Glc = target: Neu5Gc(a2-3)Gal(b1-4)Glc
# In short: as §1
# [48] = target: Neu5Gc(a2-3)Gal(b1-4)GlcNAc
# In short: as §1
# [49] = target: Neu5Gc(a2-3)Gal(b1-4)[Fuc(a1-3)]GlcNAc
# In short: as §1
# [50] = target: Neu5Gc(a2-6)Gal(b1-4)GlcNAc
# In short: as §1
# Neu5Gc(a2-6)GalNAc = target: Neu5Gc(a2-6)GalNAc
# In short: as §1
# [51] = target: Neu5Gc(b2-6)Gal(b1-4)GlcNAc
# In short: as §1
binder,measurement,setting,value
B1,glycan array binding signal (z-score),[1],0.543
same,glycan array binding signal (z-score),[2],-0.02
same,glycan array binding signal (z-score),[3],-0.044
same,glycan array binding signal (z-score),[4],-0.262
same,glycan array binding signal (z-score),Neu5Ac(a2-3)Gal(b1-4)Glc,-0.207
same,glycan array binding signal (z-score),[5],-0.215
same,glycan array binding signal (z-score),[6],-0.315
same,glycan array binding signal (z-score),[7],-0.085
same,glycan array binding signal (z-score),[8],0.295
same,glycan array binding signal (z-score),[9],-0.338
same,glycan array binding signal (z-score),[10],-0.105
same,glycan array binding signal (z-score),[11],0.477
same,glycan array binding signal (z-score),[12],-0.172
same,glycan array binding signal (z-score),[13],-0.007
same,glycan array binding signal (z-score),[14],0.047
same,glycan array binding signal (z-score),[15],0.145
same,glycan array binding signal (z-score),[16],-0.314
same,glycan array binding signal (z-score),[17],-0.203
same,glycan array binding signal (z-score),[18],-0.321
same,glycan array binding signal (z-score),[19],-0.1
same,glycan array binding signal (z-score),[20],9.18
same,glycan array binding signal (z-score),[21],-0.202
same,glycan array binding signal (z-score),[22],-0.028
same,glycan array binding signal (z-score),Neu5Ac(a2-3)GalNAc,-0.022
same,glycan array binding signal (z-score),[23],-0.143
same,glycan array binding signal (z-score),[24],-0.363
same,glycan array binding signal (z-score),[25],-0.275
same,glycan array binding signal (z-score),[26],-0.297
same,glycan array binding signal (z-score),Neu5Ac(a2-6)Gal,-0.205
same,glycan array binding signal (z-score),Neu5Ac(a2-6)Gal(b1-4)Glc,-0.132
same,glycan array binding signal (z-score),[27],-0.237
same,glycan array binding signal (z-score),[28],0.151
same,glycan array binding signal (z-score),[29],-0.112
same,glycan array binding signal (z-score),[30],-0.225
same,glycan array binding signal (z-score),[31],-0.319
same,glycan array binding signal (z-score),[32],-0.253
same,glycan array binding signal (z-score),[33],0.096
same,glycan array binding signal (z-score),[34],-0.118
same,glycan array binding signal (z-score),[35],0.132
same,glycan array binding signal (z-score),[36],-0.21
same,glycan array binding signal (z-score),Neu5Ac(a2-6)GalNAc,-0.208
same,glycan array binding signal (z-score),[37],-0.333
same,glycan array binding signal (z-score),Neu5Ac(a2-8)Neu5Ac,-0.193
same,glycan array binding signal (z-score),[38],-0.173
same,glycan array binding signal (z-score),[39],-0.123
same,glycan array binding signal (z-score),[40],0.098
same,glycan array binding signal (z-score),[41],-0.259
same,glycan array binding signal (z-score),[42],-0.314
same,glycan array binding signal (z-score),[43],-0.382
same,glycan array binding signal (z-score),[44],-0.244
same,glycan array binding signal (z-score),Neu5Ac(b2-6)GalNAc,-0.324
same,glycan array binding signal (z-score),[45],0.073
same,glycan array binding signal (z-score),[46],-0.13
same,glycan array binding signal (z-score),[47],2.25
same,glycan array binding signal (z-score),Neu5Gc(a2-3)Gal(b1-4)Glc,0.202
same,glycan array binding signal (z-score),[48],-0.056
same,glycan array binding signal (z-score),[49],0.145
same,glycan array binding signal (z-score),[50],-0.23
same,glycan array binding signal (z-score),Neu5Gc(a2-6)GalNAc,-0.346
same,glycan array binding signal (z-score),[51],-0.247
